Consider 31 molecules from article PMC9911399, “Two distinct binding modes provide the RNA-binding protein RbFox with extraordinary sequence specificity”.

Where a chain is given by its changes, count along the chain named. The list shows a part of the results.

The chains are these.
T1: RBFOX1 RRM (Homo sapiens, UniProt Q9NWB1 109-208)
T1 sequence: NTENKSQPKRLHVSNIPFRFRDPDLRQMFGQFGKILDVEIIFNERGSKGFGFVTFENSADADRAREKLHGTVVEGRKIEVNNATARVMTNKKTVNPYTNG

B1: UAUCAAG (DNA:RNA)
RNA: GGGAGACCGGAAUUCAGAUUGUCCUAUCAAGUUAAAUCCCGUCGUAGCCACCA
DNA 1: CAATCTGAATTCCGGTCTCCC
DNA 2: TGGTGGCTACGACGGGATT
B2: AAGGGCU (DNA:RNA)
RNA: B1 RNA with U25A, U27G, C28G, A29G, A30C, G31U
DNA 1: CAATCTGAATTCCGGTCTCCC
DNA 2: TGGTGGCTACGACGGGATT
B3: UGUUGAU (DNA:RNA)
RNA: B1 RNA with A26G, C28U, A29G, G31U
DNA 1: CAATCTGAATTCCGGTCTCCC
DNA 2: TGGTGGCTACGACGGGATT
B4: CUUCUCU (DNA:RNA)
RNA: B1 RNA with U25C, A26U, A29U, A30C, G31U
DNA 1: CAATCTGAATTCCGGTCTCCC
DNA 2: TGGTGGCTACGACGGGATT
B5: CAAAAAG (DNA:RNA)
RNA: B1 RNA with U25C, U27A, C28A
DNA 1: CAATCTGAATTCCGGTCTCCC
DNA 2: TGGTGGCTACGACGGGATT
B6: GCAUUUG (DNA:RNA)
RNA: B1 RNA with U25G, A26C, U27A, C28U, A29U, A30U
DNA 1: CAATCTGAATTCCGGTCTCCC
DNA 2: TGGTGGCTACGACGGGATT
B7: CAACCAU (DNA:RNA)
RNA: B1 RNA with U25C, U27A, A29C, G31U
DNA 1: CAATCTGAATTCCGGTCTCCC
DNA 2: TGGTGGCTACGACGGGATT
B8: GCGCACU (DNA:RNA)
RNA: B1 RNA with U25G, A26C, U27G, A30C, G31U
DNA 1: CAATCTGAATTCCGGTCTCCC
DNA 2: TGGTGGCTACGACGGGATT
B9: UUUUUUG (DNA:RNA)
RNA: B1 RNA with A26U, C28U, A29U, A30U
DNA 1: CAATCTGAATTCCGGTCTCCC
DNA 2: TGGTGGCTACGACGGGATT
B10: CUGGAAC (DNA:RNA)
RNA: B1 RNA with U25C, A26U, U27G, C28G, G31C
DNA 1: CAATCTGAATTCCGGTCTCCC
DNA 2: TGGTGGCTACGACGGGATT
B11: CGUCCAA (DNA:RNA)
RNA: B1 RNA with U25C, A26G, A29C, G31A
DNA 1: CAATCTGAATTCCGGTCTCCC
DNA 2: TGGTGGCTACGACGGGATT
B12: ACUUAAG (DNA:RNA)
RNA: B1 RNA with U25A, A26C, C28U
DNA 1: CAATCTGAATTCCGGTCTCCC
DNA 2: TGGTGGCTACGACGGGATT
B13: GAACCUU (DNA:RNA)
RNA: B1 RNA with U25G, U27A, A29C, A30U, G31U
DNA 1: CAATCTGAATTCCGGTCTCCC
DNA 2: TGGTGGCTACGACGGGATT
B14: UAGGUAA (DNA:RNA)
RNA: B1 RNA with U27G, C28G, A29U, G31A
DNA 1: CAATCTGAATTCCGGTCTCCC
DNA 2: TGGTGGCTACGACGGGATT
B15: AUAUCCG (DNA:RNA)
RNA: B1 RNA with U25A, A26U, U27A, C28U, A29C, A30C
DNA 1: CAATCTGAATTCCGGTCTCCC
DNA 2: TGGTGGCTACGACGGGATT
B16: AGCCUGC (DNA:RNA)
RNA: B1 RNA with U25A, A26G, U27C, A29U, A30G, G31C
DNA 1: CAATCTGAATTCCGGTCTCCC
DNA 2: TGGTGGCTACGACGGGATT
B17: UCAGUAG (DNA:RNA)
RNA: B1 RNA with A26C, U27A, C28G, A29U
DNA 1: CAATCTGAATTCCGGTCTCCC
DNA 2: TGGTGGCTACGACGGGATT
B18: AAUAAUC (DNA:RNA)
RNA: B1 RNA with U25A, C28A, A30U, G31C
DNA 1: CAATCTGAATTCCGGTCTCCC
DNA 2: TGGTGGCTACGACGGGATT
B19: ACCAACG (DNA:RNA)
RNA: B1 RNA with U25A, A26C, U27C, C28A, A30C
DNA 1: CAATCTGAATTCCGGTCTCCC
DNA 2: TGGTGGCTACGACGGGATT
B20: CAACCGA (DNA:RNA)
RNA: B1 RNA with U25C, U27A, A29C, A30G, G31A
DNA 1: CAATCTGAATTCCGGTCTCCC
DNA 2: TGGTGGCTACGACGGGATT
B21: AGACAGC (DNA:RNA)
RNA: B1 RNA with U25A, A26G, U27A, A30G, G31C
DNA 1: CAATCTGAATTCCGGTCTCCC
DNA 2: TGGTGGCTACGACGGGATT
B22: AUAUAGU (DNA:RNA)
RNA: B1 RNA with U25A, A26U, U27A, C28U, A30G, G31U
DNA 1: CAATCTGAATTCCGGTCTCCC
DNA 2: TGGTGGCTACGACGGGATT
B23: GGGCUAC (DNA:RNA)
RNA: B1 RNA with U25G, A26G, U27G, A29U, G31C
DNA 1: CAATCTGAATTCCGGTCTCCC
DNA 2: TGGTGGCTACGACGGGATT
B24: AUUGACG (DNA:RNA)
RNA: B1 RNA with U25A, A26U, C28G, A30C
DNA 1: CAATCTGAATTCCGGTCTCCC
DNA 2: TGGTGGCTACGACGGGATT
B25: GACACCG (DNA:RNA)
RNA: B1 RNA with U25G, U27C, C28A, A29C, A30C
DNA 1: CAATCTGAATTCCGGTCTCCC
DNA 2: TGGTGGCTACGACGGGATT
B26: GUCUUCC (DNA:RNA)
RNA: GGGAGACCGGAAUUCAGAUUGUCCGUCUUCCUUAAAUCCCGUCGUAGCCACCA
DNA 1: CAATCTGAATTCCGGTCTCCC
DNA 2: TGGTGGCTACGACGGGATT
B27: ACCUAAG (DNA:RNA)
RNA: B1 RNA with U25A, A26C, U27C, C28U
DNA 1: CAATCTGAATTCCGGTCTCCC
DNA 2: TGGTGGCTACGACGGGATT
B28: AGUUCAU (DNA:RNA)
RNA: B1 RNA with U25A, A26G, C28U, A29C, G31U
DNA 1: CAATCTGAATTCCGGTCTCCC
DNA 2: TGGTGGCTACGACGGGATT
B29: AUAGGUC (DNA:RNA)
RNA: B26 RNA with G25A, C27A, U28G, U29G, C30U
DNA 1: CAATCTGAATTCCGGTCTCCC
DNA 2: TGGTGGCTACGACGGGATT
B30: UAUAUAA (DNA:RNA)
RNA: B1 RNA with C28A, A29U, G31A
DNA 1: CAATCTGAATTCCGGTCTCCC
DNA 2: TGGTGGCTACGACGGGATT
B31: AGCCUUU (DNA:RNA)
RNA: B26 RNA with G25A, U26G, U28C, C30U, C31U
DNA 1: CAATCTGAATTCCGGTCTCCC
DNA 2: TGGTGGCTACGACGGGATT

This experiment concerns the target T1, RBFOX1 RRM. In words: EMSA; HiTS-Eq, 1 nM pool, 10 min; buffer printed only for the single-RNA assays: 10 mM Tris pH 7.5, 150 mM NaCl, 3.4 mM EDTA, 0.001% NP-40, 30 C. The note with it: tags: His6 N-terminal (pET28a); label: 5' 32P. An outline of the steps: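 Purified RbFox RRM (wild type or mutant) was equilibrated for 10 min in 50 µL with 1 nM of a 5′-radiolabelled pool of RNA with 7 randomized nucleotides, its flanks annealed to DNA oligonucleotides, across increasing protein concentrations. Free RNA was separated by 8% native PAGE, excised, reverse-transcribed, PCR-barcoded and sequenced on an Illumina HiSeq 2500. Relative association constants came from read-count changes of each variant against the control reaction, normalised to the cognate motif.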
In the case of B1, the binding signal is 0.00843 KA relative to UGCAUGU. Then B2, with 0.0102 KA relative to UGCAUGU; and B3, with 0.0302 KA relative to UGCAUGU; and B4, with 0.00925 KA relative to UGCAUGU. Then B5, with 0.000641 KA relative to UGCAUGU; and B6, with 0.0139 KA relative to UGCAUGU; and B7, with 0.000819 KA relative to UGCAUGU. Then B8, with 0.0119 KA relative to UGCAUGU; and B9, with 0.0341 KA relative to UGCAUGU. Consider B10, for which the binding signal was 0.0213 KA relative to UGCAUGU. Then B11, with 0.00204 KA relative to UGCAUGU. As for B12, the figure is 0.00597 KA relative to UGCAUGU; as for B13, 0.00478 KA relative to UGCAUGU; as for B14, 0.0128 KA relative to UGCAUGU. As for B15, the figure is 0.00466 KA relative to UGCAUGU; as for B16, 0.0203 KA relative to UGCAUGU; as for B17, 0.00928 KA relative to UGCAUGU. Turning to B18, the binding signal was 0.000428 KA relative to UGCAUGU. Then B19, with 0.00313 KA relative to UGCAUGU; and B20, with 0.00383 KA relative to UGCAUGU. Then B21, with 0.00652 KA relative to UGCAUGU; and B22, with 0.00253 KA relative to UGCAUGU; and B23, with 0.0173 KA relative to UGCAUGU. For the molecule B24, the binding signal was 0.00843 KA relative to UGCAUGU.

Consider B25, for which the binding signal was 0.00634 KA relative to UGCAUGU. As for B26, the figure is 0.0185 KA relative to UGCAUGU; as for B27, 0.00359 KA relative to UGCAUGU; as for B28, 0.00454 KA relative to UGCAUGU.

As for B29, the binding signal is 0.0113 KA relative to UGCAUGU. As for B30, the figure is 0.00754 KA relative to UGCAUGU; as for B31, 0.00839 KA relative to UGCAUGU.
